The list shows a part of the results. Cut-off read from the data, not from the text of the source: active = 3.2 or more and inactive = the rest. Most of these values are background signal.
Assays:
Assay in all cases: enrichment score (SH2-bound / input frequency) (ratio); bacterial display of known human phosphotyrosine sites (pTyr-Var adds point mutants) read by sequencing; higher = stronger binding; tyrosines were phosphorylated by kinases first
Settings in all cases: peptide library: pTyr-Var
[1] = target: SHP2 C-SH2 domain E139D
[2] = target: SHP2 C-SH2 domain wild-type
[3] = target: SHP2 N-SH2 domain L43F
[4] = target: SHP2 N-SH2 domain T42A
[5] = target: SHP2 N-SH2 domain T52S
[6] = target: SHP2 N-SH2 domain wild-type
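Note: displayed peptides selected on beads carrying the immobilized SH2 domain, with library peptides lacking any tyrosine serving as negative controls.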

Row | Binder | enrichment score [1] | enrichment score [2] | enrichment score [3] | enrichment score [4] | enrichment score [5] | enrichment score [6]
1 | KQFWRYFAGNL [SLC25A4_Y112] | inactive: 1.42 | inactive: 0.981 | inactive: 1.07 | inactive: 1.06 | inactive: 1.17 | inactive: 0.93
2 | QGIIIYRAAYF [SLC25A4_Y187] | inactive: 0.515 | inactive: 0.891 | inactive: 0.963 | inactive: 1.07 | inactive: 1.05 | inactive: 0.83
3 | VFLGAYDHFLP [SLC22A5_Y486_R488H_YF] | inactive: 1.27 | inactive: 1.25 | inactive: 1.23 | inactive: 1.28 | inactive: 1.23 | inactive: 1.19
4 | KREPQYSSHSS [SIPA1L3_Y1265_G1261R] | inactive: 0.594 | inactive: 0.673 | inactive: 0.717 | inactive: 0.447 | inactive: 0.543 | inactive: 0.628
5 | PTYEHYANSTQ [SLC12A3_Y70] | inactive: 0.662 | inactive: 0.662 | inactive: 0.7 | inactive: 0.68 | inactive: 0.5 | inactive: 0.717
6 | QGIIIYRAAFF [SLC25A4_Y187_YF] | inactive: 0.527 | inactive: 0.639 | inactive: 0.4 | inactive: 0.507 | inactive: 0.66 | inactive: 0.885
7 | FGSIMYEFVGK [SLC18A1_Y251_V249I] | inactive: 1.29 | inactive: 1.02 | inactive: 1.09 | inactive: 1.28 | inactive: 1.2 | inactive: 1.17
8 | TLEKYYFAFPG [SLC1A1_Y51_F50Y] | inactive: 1.65 | inactive: 1.49 | inactive: 1.68 | inactive: 1.36 | inactive: 1.19 | inactive: 1.27
9 | ALPVFYAATIA [SLC20A2_Y187] | inactive: 0.695 | inactive: 0.874 | inactive: 0.79 | inactive: 1.68 | inactive: 0.902 | inactive: 0.871
10 | KGEPQYSSHSS [SIPA1L3_Y1265] | inactive: 0.592 | inactive: 0.467 | inactive: 0.539 | inactive: 0.618 | inactive: 0.524 | inactive: 0.731
11 | PANTVYSTVEI [SLAMF7_Y304] | inactive: 1.47 | inactive: 2.47 | inactive: 1.67 | active: 3.4 | inactive: 1.58 | inactive: 1.08
12 | RQNNSYTCFTA [SLC20A2_Y386_R382Q_YF] | inactive: 0.83 | inactive: 0.757 | inactive: 0.583 | inactive: 0.572 | inactive: 0.613 | inactive: 0.563
13 | GQSKGYRPKLF [SIPA1L3_Y1376_YF] | inactive: 0.605 | inactive: 0.642 | inactive: 0.498 | inactive: 0.533 | inactive: 0.459 | inactive: 0.668
14 | FYLGAYDRFLP [SLC22A5_Y486_V481F] | inactive: 2.24 | inactive: 1.63 | inactive: 1.91 | inactive: 2.03 | inactive: 1.83 | inactive: 1.85
15 | CEHFSYFGMKA [SLC15A2_Y60_R57H_YF] | inactive: 1.39 | inactive: 1.38 | inactive: 1.21 | inactive: 1.04 | inactive: 1.28 | inactive: 1.35
16 | DSYWSYCNAVA [SLC20A2_Y436_S434W] | inactive: 0.9 | inactive: 0.85 | inactive: 0.638 | inactive: 0.806 | inactive: 0.809 | inactive: 1
17 | PTFEHYANSTQ [SLC12A3_Y70_YF] | inactive: 0.757 | inactive: 0.892 | inactive: 1.09 | inactive: 0.76 | inactive: 0.889 | inactive: 1.08
18 | QCQLKYSETPF [SIX6OS1_Y129_Y125C] | inactive: 0.868 | inactive: 0.843 | inactive: 0.75 | inactive: 0.614 | inactive: 0.808 | inactive: 0.849
19 | EHFSYYGMKAV [SLC15A2_Y61_R57H] | inactive: 1.06 | inactive: 0.944 | inactive: 0.801 | inactive: 0.745 | inactive: 1.03 | inactive: 0.86

Row | Binder | enrichment score [1] | enrichment score [2] | enrichment score [3] | enrichment score [4] | enrichment score [5] | enrichment score [6]
20 | VYLGAYDRFLP [SLC22A5_Y486] | inactive: 1.06 | inactive: 1.66 | inactive: 0.954 | inactive: 1.02 | inactive: 0.903 | inactive: 1.24
21 | GRTNICKNKKD [SLC26A3_Y520_Y520C] | inactive: 1.76 | inactive: 1.59 | inactive: 1.55 | inactive: 1.34 | inactive: 1.78 | inactive: 1.53
22 | TLEKFYFAFPG [SLC1A1_Y51] | inactive: 1.51 | inactive: 1.29 | inactive: 1.35 | inactive: 1.3 | inactive: 1.48 | inactive: 1.62
23 | SQSKGYRPKLF [SIPA1L3_Y1376_G1371S_YF] | inactive: 0.308 | inactive: 0.321 | inactive: 0.332 | inactive: 0.329 | inactive: 0.342 | inactive: 0.457
24 | TQFWLYFAGNL [SLC25A5_Y112] | inactive: 1.05 | inactive: 1.69 | inactive: 0.858 | inactive: 1.04 | inactive: 1.06 | inactive: 1.58
25 | PANMVYSTVEI [SLAMF7_Y304_T302M] | inactive: 0.952 | inactive: 1.04 | inactive: 1.16 | inactive: 1.8 | inactive: 1.57 | inactive: 0.927
26 | PDKRIYQFTAS [SKAP2_Y197_A202S] | inactive: 0.858 | inactive: 0.693 | inactive: 0.737 | inactive: 0.627 | inactive: 0.665 | inactive: 0.727
27 | LYRYGYANTSE [SI_Y1233_C1229Y] | inactive: 1.14 | inactive: 1.13 | inactive: 0.895 | inactive: 1.54 | inactive: 0.9 | inactive: 1.11
28 | RKEAQYMLENE [SLC16A6_Y224] | inactive: 0.527 | inactive: 0.402 | inactive: 0.816 | inactive: 0.314 | inactive: 0.482 | inactive: 0.584
29 | RRNNSYTCYTA [SLC20A2_Y386] | inactive: 0.333 | inactive: 0.328 | inactive: 0.19 | inactive: 0.282 | inactive: 0.44 | inactive: 0.264
30 | CERFSYFGMKA [SLC15A2_Y60_YF] | inactive: 1.43 | inactive: 1.15 | inactive: 0.941 | inactive: 1.27 | inactive: 1.21 | inactive: 1.19
31 | RRNNSYTCFTA [SLC20A2_Y386_YF] | inactive: 0.586 | inactive: 0.397 | inactive: 0.23 | inactive: 0.382 | inactive: 0.358 | inactive: 0.404
32 | AQESNYRLLRR [SLC20A2_Y377] | inactive: 0.228 | inactive: 0.227 | inactive: 0.258 | inactive: 0.202 | inactive: 0.242 | inactive: 0.175
33 | LLREWYLQDPF [SIX3_Y225_YF] | inactive: 1.74 | inactive: 2.31 | inactive: 2.49 | inactive: 2.27 | inactive: 2.56 | inactive: 1.75
34 | PDKRIYQFTAA [SKAP2_Y197] | inactive: 0.63 | inactive: 0.732 | inactive: 0.653 | inactive: 0.621 | inactive: 0.841 | inactive: 0.706
35 | IFLGAYDRFLP [SLC22A5_Y486_V481I_YF] | inactive: 1.9 | inactive: 1.85 | inactive: 1.94 | inactive: 1.88 | inactive: 1.73 | inactive: 1.75
36 | FFLGAYDRFLP [SLC22A5_Y486_V481F_YF] | inactive: 2.65 | inactive: 2.7 | inactive: 2.49 | inactive: 2.44 | inactive: 2.42 | inactive: 2.6
37 | PTYENYANSTQ [SLC12A3_Y70_H69N] | inactive: 2.35 | inactive: 1.82 | inactive: 1.99 | inactive: 2.62 | inactive: 1.66 | inactive: 2.1
